Experiment in all cases: glycan array binding signal (z-score within array); higher = stronger binding
Conditions in all cases: glycan notation: IUPAC condensed, linker removed

Experiment [1] deals with Gal(b1-4)GlcNAc(b1-3)Gal(b1-4)GlcNAc(b1-3)Gal(b1-4)GlcNAc(b1-3)Gal(b1-4)GlcNAc(b1-2)Man(a1-3)[Gal(b1-4)GlcNAc(b1-3)Gal(b1-4)GlcNAc(b1-3)Gal(b1-4)GlcNAc(b1-3)Gal(b1-4)GlcNAc(b1-2)Man(a1-6)]Man(b1-4)GlcNAc(b1-4)GlcNAc. In short, it runs like this: (§1)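 Glycan array binding is given as a within-array Z-score, which can be read as non-binding when negative. The arrays, 3228 of them, came from the Consortium for Functional Glycomics database and were retained only where the protein sequence was available. Z-scores were averaged across arrays of the same protein sequence at different concentrations or buffers and across linkers.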

The target in experiment [2] is Gal(b1-4)GlcNAc(b1-3)Gal(b1-4)GlcNAc(b1-3)Gal(b1-4)GlcNAc(b1-3)Gal(b1-4)GlcNAc(b1-2)Man(a1-3)[Gal(b1-4)GlcNAc(b1-3)Gal(b1-4)GlcNAc(b1-3)Gal(b1-4)GlcNAc(b1-3)Gal(b1-4)GlcNAc(b1-2)Man(a1-6)]Man(b1-4)GlcNAc(b1-4)[Fuc(a1-6)]GlcNAc. In short, it runs like this:
as §1

The target in experiment [3] is Gal(b1-4)GlcNAc(b1-3)Gal(b1-4)GlcNAc(b1-3)Gal(b1-4)GlcNAc(b1-3)Gal(b1-4)GlcNAc(b1-2)[Gal(b1-4)GlcNAc(b1-3)Gal(b1-4)GlcNAc(b1-3)Gal(b1-4)GlcNAc(b1-3)Gal(b1-4)GlcNAc(b1-6)]Man(a1-6)[Gal(b1-4)GlcNAc(b1-3)Gal(b1-4)GlcNAc(b1-3)Gal(b1-4)GlcNAc(b1-3)Gal(b1-4)GlcNAc(b1-2)Man(a1-3)]Man(b1-4)GlcNAc(b1-4)[Fuc(a1-6)]GlcNAc. In short, it runs like this:
as §1

Experiment [4] deals with Gal(b1-4)GlcNAc(b1-3)Gal(b1-4)GlcNAc(b1-3)Gal(b1-4)GlcNAc(b1-3)Gal(b1-4)GlcNAc(b1-3)Gal(b1-4)GlcNAc(b1-2)Man(a1-3)[Gal(b1-4)GlcNAc(b1-3)Gal(b1-4)GlcNAc(b1-3)Gal(b1-4)GlcNAc(b1-3)Gal(b1-4)GlcNAc(b1-3)Gal(b1-4)GlcNAc(b1-2)Man(a1-6)]Man(b1-4)GlcNAc(b1-4)GlcNAc. In short, it runs like this:
as §1

Experiment [5] has as its target Gal(b1-4)GlcNAc(b1-3)Gal(b1-4)GlcNAc(b1-3)Gal(b1-4)GlcNAc(b1-3)Gal(b1-4)GlcNAc(b1-3)Gal(b1-4)GlcNAc(b1-2)Man(a1-3)[Gal(b1-4)GlcNAc(b1-3)Gal(b1-4)GlcNAc(b1-3)Gal(b1-4)GlcNAc(b1-3)Gal(b1-4)GlcNAc(b1-3)Gal(b1-4)GlcNAc(b1-2)Man(a1-6)]Man(b1-4)GlcNAc(b1-4)[Fuc(a1-6)]GlcNAc. In short, it runs like this: as §1
In experiment [6] the target is Gal(b1-4)GlcNAc(b1-3)Gal(b1-4)GlcNAc(b1-3)Gal(b1-4)GlcNAc(b1-3)Gal(b1-4)GlcNAc(b1-3)Gal(b1-4)GlcNAc(b1-2)[Gal(b1-4)GlcNAc(b1-3)Gal(b1-4)GlcNAc(b1-3)Gal(b1-4)GlcNAc(b1-3)Gal(b1-4)GlcNAc(b1-3)Gal(b1-4)GlcNAc(b1-6)]Man(a1-6)[Gal(b1-4)GlcNAc(b1-3)Gal(b1-4)GlcNAc(b1-3)Gal(b1-4)GlcNAc(b1-3)Gal(b1-4)GlcNAc(b1-3)Gal(b1-4)GlcNAc(b1-2)Man(a1-3)]Man(b1-4)GlcNAc(b1-4)[Fuc(a1-6)]GlcNAc. The gist of the method:
as §1

In experiment [7] the target is Gal(b1-4)GlcNAc(b1-3)Gal(b1-4)GlcNAc(b1-3)Gal(b1-4)GlcNAc(b1-3)Gal(b1-4)GlcNAc(b1-3)Gal(b1-4)GlcNAc(b1-3)Gal(b1-4)GlcNAc(b1-2)Man(a1-3)[Gal(b1-4)GlcNAc(b1-3)Gal(b1-4)GlcNAc(b1-3)Gal(b1-4)GlcNAc(b1-3)Gal(b1-4)GlcNAc(b1-3)Gal(b1-4)GlcNAc(b1-3)Gal(b1-4)GlcNAc(b1-2)Man(a1-6)]Man(b1-4)GlcNAc(b1-4)GlcNAc. In short, it runs like this: as §1
For experiment [8], the target named is Gal(b1-4)GlcNAc(b1-3)Gal(b1-4)GlcNAc(b1-3)GalNAc. The gist of the method: as §1
For experiment [9], the target named is Gal(b1-4)GlcNAc(b1-3)Gal(b1-4)GlcNAc(b1-3)[Gal(b1-4)GlcNAc(b1-3)Gal(b1-4)GlcNAc(b1-6)]GalNAc. In short, it runs like this: as §1
Experiment [10] has as its target Gal(b1-4)GlcNAc(b1-3)Gal(b1-4)GlcNAc(b1-6)[Gal(b1-3)]GalNAc. The gist of the method: as §1
The target of experiment [11] is Gal(b1-4)GlcNAc(b1-3)Gal(b1-4)[Fuc(a1-3)]GlcNAc(b1-3)Gal(b1-4)[Fuc(a1-3)]GlcNAc. In short, it runs like this:
as §1

In experiment [12] the target is Gal(b1-4)GlcNAc(b1-3)GalNAc. In short, it runs like this: as §1
The target of experiment [13] is Gal(b1-4)GlcNAc(b1-3)[Fuc(a1-3)GlcNAc(b1-6)]Gal(b1-4)Glc. The gist of the method: as §1
The target of experiment [14] is Gal(b1-4)GlcNAc(b1-3)[Gal(b1-4)GlcNAc(b1-6)]Gal(b1-4)GlcNAc. The gist of the method: as §1
For experiment [15], the target named is Gal(b1-4)GlcNAc(b1-3)[GlcNAc(b1-6)]Gal(b1-4)GlcNAc. In short, it runs like this:
as §1

For experiment [16], the target named is Gal(b1-4)GlcNAc(b1-6)Gal(b1-4)GlcNAc. In short, it runs like this:
as §1

Experiment [17] deals with Gal(b1-4)GlcNAc(b1-6)GalNAc. The gist of the method: as §1
Experiment [18] deals with Gal(b1-4)GlcNAc(b1-6)[Gal(b1-3)]GalNAc. In short, it runs like this:
as §1

The target of experiment [19] is Gal(b1-4)GlcNAc(b1-6)[Gal(b1-4)GlcNAc(b1-3)]GalNAc. The gist of the method: as §1
In the next experiment the target is Gal(b1-4)GlcNAc6P. The gist of the method: as §1
The target in another experiment is Gal(b1-6)Gal. The gist of the method: as §1
Another experiment has as its target Gal3S(b1-3)GalNAc. In short, it runs like this:
as §1

The next experiment deals with Gal3S(b1-3)GlcNAc. The gist of the method: as §1

The source of these data is the supplement of paper PMC8728848.

The other results are listed elsewhere or left out.

B1: HA-11100 (Pseudomonas aeruginosa), Q02G51_PSEAB (protein)
chain: QFNPNEIKISQQGKTTLIDQSTQRAIINWKGFDVSADEAVRFNQPGVTSSTLNRVTAGQESVIAGRISAPGQVIIYNSNGVVFSGSAKVDVGSLITTTANISDEHFRQGKLIFDQPGNPDARIVNDGSISVAEKGLAAFVAPSVANNGVINARLGTVAMAAGNAATIDLYG
Take B1: the “glycan array binding signal (z-score)” value is 0.355 in experiment [1]; 2.99 in experiment [2]; 3.24 in experiment [3]; 0.19 in experiment [4]; -0.136 in experiment [5]; -0.209 in [6]. Further, the “glycan array binding signal (z-score)” value was 1.87 in experiment [7]; 0.684 in experiment [8]; 0.853 in experiment [9]; 0.111 in [10]; -0.329 in experiment [11]; -0.46 in [12]. The “glycan array binding signal (z-score)” value in experiment [13] is -0.061; in experiment [14], 0.179; in experiment [15], -0.011; in experiment [16], -0.457; in experiment [17], 0.612; in experiment [18] it was -0.41. Besides, the “glycan array binding signal (z-score)” value in [19] was -0.292; with Gal(b1-4)GlcNAc6P, -0.149; in the experiment with Gal(b1-6)Gal, -0.505; in the experiment with Gal3S(b1-3)GalNAc, -0.013; in the experiment with Gal3S(b1-3)GlcNAc, -0.23.
